This is one part of the list.
T1: UNK ZnF1-3 (human, UniProt Q9C0B0 31-174)
T1 sequence: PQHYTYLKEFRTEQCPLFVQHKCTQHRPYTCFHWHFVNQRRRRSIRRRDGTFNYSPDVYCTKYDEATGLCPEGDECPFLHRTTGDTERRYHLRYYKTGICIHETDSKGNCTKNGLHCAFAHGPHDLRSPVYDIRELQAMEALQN

B1: chr7:75932113:75932114:+_ENSG00000106211_ENST00000248553|hu_hu|hu_hu_hu_mus_False|1_1 (ssRNA)
RNA: GGGAGUUCUACAGUCCGACGAUCCUGCGACCACUCAUCGGGCAACCGGGGCACCCCGAAAGCUUGAUCGAAGAGGCGGCUGUGUGCAGGGUACCAGUCCCGGAAUGGUUCCCAGCUCGGGCUCCGCAGCAGCGAGAGGACGCGCAACAGAGGAUUGAGCAUCA
B2: chr3:150289932:150289933:+_ENSG00000144895_ENST00000460851|hu_hu|hu_hu_hu_mus_False|18_98 (ssRNA)
RNA: GGGAGUUCUACAGUCCGACGAUCCUUGUAGUUUUUAACAUCCCACACUUCCAUUUGUCCUCGAAGAUUUCCAAAUCCAGCCAGCACUAAUAUAUGUCCAUGAGGGCUAUAGAAGGCUGCAUUACGAGGACCAGUCCCAAAGUCCAACAGAGGAUUGAGCAUCA
B3: chr2:179515052:179515053:+_ENSMUSG00000000305_ENSMUST00000000314|mus_hu|mus_mus_mus_hu_False|18_108 (ssRNA)
RNA: GGGAGUUCUACAGUCCGACGAUCGCUUUCCCGCGCAGUCACCGUGAACGCCACCUGCUCGGAGGGGACCUGCAGCUCCCGGGUGGCGAAGACUGUCCCAUCUGCCCCAACUUUGAAGUCCAAGCUGUUGGUCUCAUAUUGUGUCAACAGAGGAUUGAGCAUCA
B4: chr2:24297012:24297013:-_ENSG00000115128_ENST00000233468|hu_mus|FALSE|FALSE (ssRNA)
RNA: GGGAGUUCUACAGUCCGACGAUCACGAAUAGGUCCAUAUUUCCCAAAUAUAUCAUACAUUUCUUCUGCUGUGAUUUUGUAUGGCAAAUUCCUUAUAUACAAAAUCCGAUUUACUUCAGGUGGGAGGCGAAUAUUCGCCCUCUUCAACAGAGGAUUGAGCAUCA
B5: chrX:71549400:71549401:+_ENSMUSG00000019087_ENSMUST00000019231|mus_hu|mus_mus_mus_hu_False|78_78 (ssRNA)
RNA: GGGAGUUCUACAGUCCGACGAUCGCAGUAGGAAGAGGGAAGCUCUUCAGUCCAGUGGUCACAAAACUGGGAAAGCAACAACACGGACACCGUCCCACCCUCAACCCCCCCACUGGCACAGGGUCACACAAUCUGGGUCAAAGACAACAGAGGAUUGAGCAUCA
B6: chr14:89338683:89338684:+_ENSG00000165533_ENST00000346301|hu_hu|hu_hu_hu_mus_False|58_78 (ssRNA)
RNA: GGGAGUUCUACAGUCCGACGAUCGUGGUUGUUGUGGACCAGGGCCAGCCUGAAGCACUGAUGGGCCAAGUUUGUAUCUCCUAUUCCCACAGCUAUGUGCCCCAGGUUGUACCAGACAUCAGCUGCCUCUUCUUCAUUUUCAGCCAACAGAGGAUUGAGCAUCA
B7: chr10:33190432:33190433:-_ENSG00000150093_ENST00000302278|hu_mus|hu_hu_hu_mus_True|58_78 (ssRNA)
RNA: GGGAGUUCUACAGUCCGACGAUCUACAUUUUCCAAACCUGCAUGUGAAUAAAACCCUGGCAAUAUUGCCCCAAAACUACCUAACUGUGACUAAGAUGCUGCUGCUGUGAGCUUGGUGUUGCAAAAUCCGCCUGAGUAGGAUUCCAACAGAGGAUUGAGCAUCA
B8: chr1:152005216:152005217:-_ENSG00000163191_ENST00000271638|hu_hu|motif|central (ssRNA)
RNA: GGGAGUUCUACAGUCCGACGAUCUCAGGUCCGCUUCUGGGAAGGGACAGCCUUGAGGAAGGAGUCAUGGCAAGCCAUAGCGGGGCCACCAAUCAGAUUAAGAAAUUCUGAGAAAUCUAGCUGACCAUCACUGUUGGUGUCCAGCAACAGAGGAUUGAGCAUCA
B9: chr10:127827607:127827608:+_ENSMUSG00000014498_ENSMUST00000014642|mus_hu|FALSE|FALSE (ssRNA)
RNA: GGGAGUUCUACAGUCCGACGAUCGCUGCAGUUCUUGAGCAGGCUGAAGCUGAAAGGACUGACGGCGUCCUUGGGUGGGAAAGGCUUCAUGGUGGAAAGGAUCAAGGCCAGGCAGUCUGCCACAUCUUUGUUGGGGGCACAGGCCAACAGAGGAUUGAGCAUCA
B10: chrX:98862621:98862622:+_ENSMUSG00000034160_ENSMUST00000044475|mus_hu|mus_mus_mus_hu_False|18_78 (ssRNA)
RNA: GGGAGUUCUACAGUCCGACGAUCCUGCAUCUCCUUUAGAGUGUUUCCCAUAUUAGAAUAAGCAUCAGCAAAGGUAGGACUGAUUCGAAUAGCCUCCUUAUAAUGCAUCAGAGCUUCCUGCAGCUUGCCCUGCUGCUGCAGUACCAACAGAGGAUUGAGCAUCA
B11: chr3:33038425:33038426:-_ENSG00000170266_ENST00000307363|hu_hu|FALSE|FALSE (ssRNA)
RNA: GGGAGUUCUACAGUCCGACGAUCAGGUGGGGCUUUGGCACUGCAGGGAUGCAGGGAAACCUCAGGUGAAAAUGCACAUCCUAAAUUCCUUUUCCAUUUCCACAUUCCAAUCAGUGAAAUGUGGCAUGACAGGGAGGAUCUGUGCAACAGAGGAUUGAGCAUCA
B12: chr6:108533379:108533380:-_ENSG00000112335_ENST00000426155|hu_mus|FALSE|FALSE (ssRNA)
RNA: GGGAGUUCUACAGUCCGACGAUCUGCUUCUUCUCACCAAACUCAGGCAUGUCUUAUUUUAGAUGGAGUAUAGCUUUUAUCUAUAAUUUCAUCCUGUAAAAACAUGUGAAGACAACGUUCAUUCUGGGCCAGAGGAUGACCAGCCAACAGAGGAUUGAGCAUCA
B13: chr11:47074021:47074022:+_ENSG00000149179_ENST00000278460|hu_hu|FALSE|FALSE (ssRNA)
RNA: GGGAGUUCUACAGUCCGACGAUCGCCAUUUUUGCCCACAGUUCGGAAGCAUCUCCAGAAGGCCCGUAAAAAUGAUACCCUAUUGUGGGGGGUGGCUUGGACGAAGCUGAAUUCUCGAAAGAGAAUGUGUGUUCCCUGGCAUACCAACAGAGGAUUGAGCAUCA
B14: chr4:144460044:144460045:+_ENSG00000153147_ENST00000283131|hu_mus|hu_hu_hu_mus_False|18_28 (ssRNA)
RNA: GGGAGUUCUACAGUCCGACGAUCACGGUCCAUAGCCUGAAGAUCAACUUGCGGAUUCCAAUCUGAGUCAUAUAAAAUGACUACAUCAGCAGUUGCAAGAUUGAUGCCAAGACCACCAGCACGCGUGCUUAGCAUAAAUACAAACAACAGAGGAUUGAGCAUCA
B15: chr4:34756745:34756746:-_ENSMUSG00000039967_ENSMUST00000047950|mus_mus|FALSE|FALSE (ssRNA)
RNA: GGGAGUUCUACAGUCCGACGAUCUAUAUUUGGACUUAGGACACUUUCCACUGAGGGUAACAAUGGAGCUGAUACACUUGCUAAAUGAGCUGGGAAAAUGGAAGGCGAGACAUGCUGCACCUGGGCUGAACAGGCAGGGUUCCCCAACAGAGGAUUGAGCAUCA
B16: 108517216_108517336_2877_CDS_ENSMUSG00000032846_ENSMUST00000105097|mouse|control|control (ssRNA)
RNA: GGGAGUUCUACAGUCCGACGAUCCGUCCGGGCACUGCUGGCCAGCUUUUCCUGUUGAUGGCAGUCCAGGUGGAGGCGGACUAUGGUGCUGUUGGACAUCACGGUAGUCGCAACAAUACUCGUGGCCUCCGUGGGAGUGAAAAGCAACAGAGGAUUGAGCAUCA
B17: chr11:57926588:57926589:+_ENSMUSG00000020515_ENSMUST00000020822|mus_mus|FALSE|FALSE (ssRNA)
RNA: GGGAGUUCUACAGUCCGACGAUCAUCGAUCCCUUCCUCCUCGUGUUUCUGGAACUGCAGCCCUGAGUUUGCAAGCAGAUCUAUGGAAUCCUGGGAGUACAUAUCCUCUGUCAGGUUGAACUUGAAGUUGAACUGCCAUGUGUUCAACAGAGGAUUGAGCAUCA
B18: 69782529_69783183_1747_CDS_ENSMUSG00000044308_ENSMUST00000055758|mouse|control|control (ssRNA)
RNA: GGGAGUUCUACAGUCCGACGAUCAAGCCCCCACAUGGGUUGUGCACAGGCUUCCAGCUCAGCAGCAAAGGCAGCAUAGUAGGUCUGAGACUCAAAUUCCACGUGCUCAUUGAGCUCUCGCUUGUUCAAGUUCAUACCUUGAAACAACAGAGGAUUGAGCAUCA
B19: chr8:117878989:117878990:-_ENSG00000164754_ENST00000297338|hu_hu|hu_hu_hu_mus_True|68_68 (ssRNA)
RNA: GGGAGUUCUACAGUCCGACGAUCCCAGAGGCCCUCGUUUACUGAGGACAAAAUGUGCGUAGAACAUUGUUCUGGCUUGCUAUGAAAUAAGAAGAAACCUGGAUCUCGGCGGGGAGCCGGGAGGGGUGGGUGGCCCGGGGAGGGCAACAGAGGAUUGAGCAUCA
B20: chr5:4806066:4806067:-_ENSMUSG00000028926_ENSMUST00000030763|mus_mus|FALSE|FALSE (ssRNA)
RNA: GGGAGUUCUACAGUCCGACGAUCUCACCCUGUCUUUGUUUUCCAUGUUUAUUUCUCUACCUGCUCAGAAACAGUCAGGCUAUUGAAAUAGCAAGUGGAUUUUGGUCUCCUGUGUAAAUGUGUGCUCAUUUCCAAUAAAAAACGCAACAGAGGAUUGAGCAUCA
B21: 151583239_151585632_2825_3pUTR_ENSMUSG00000034021_ENSMUST00000016569|mouse|control|control (ssRNA)
RNA: GGGAGUUCUACAGUCCGACGAUCCUCCCAGCAGCAAGUCUCAGGCGUGACAUAUCUGGUUUACUAAUUUUCCCUUGUUCUGUCAAAUCCCCAUCACUAUGCAGUAUCGUUGUUAGUAAUCUGAGGGUGGAAGUUCCUGACUUACAACAGAGGAUUGAGCAUCA
B22: 69488064_69490052_123_CDS_ENSG00000149716_ENST00000279147|human|control|control (ssRNA)
RNA: GGGAGUUCUACAGUCCGACGAUCUUCCCGAUACCCUUCCCCAUGAAACCUCUCAUCCGCCAUCACGAUGGCAUCGAAUAUGUCCUGACUGCCAGCCAUAGCGGCAAGCAGCCCGCCCUUGGCCCCCGGGUUUCUGCAGCCCCGCAACAGAGGAUUGAGCAUCA

Biological target: T1, UNK ZnF1-3
Experiment: nsRBNS (natural sequence RNA bind-n-seq); RBNS binding buffer (assumed for nsRBNS): 25 mM Tris pH 7.5, 150 mM KCl, 3 mM MgCl2, 0.01% Triton X-100, 500 ug/ml BSA, 20 U/ml SUPERase-In, 4 C; UNK is unkempt and MSI1 is Musashi-1; names of the RNAs are library labels; protein concentration not given here; high values mean tight binding

Q: B1 was tested. Which binding signal did it give?
A: The binding signal was 0.691 enrichment R.

Q: How did the binding signal turn out when B2 was run?
A: The binding signal was 1.23 enrichment R.

Q: How did the binding signal turn out when B3 was run?
A: The binding signal was 0.872 enrichment R.

Q: B4 was tested. Which binding signal did it give?
A: Its binding signal is 0.592 enrichment R.

Q: B5 was tested. Which binding signal did it give?
A: The binding signal was 1.76 enrichment R.

Q: How did the binding signal turn out when B6 was run?
A: The binding signal was 0.605 enrichment R.

Q: Which binding signal does the source give for B7 here?
A: The binding signal was 1.22 enrichment R.

Q: B8 was tested. Which binding signal did it give?
A: Its binding signal is 1.48 enrichment R.

Q: How did the binding signal turn out when B9 was run?
A: Its binding signal is 2.09 enrichment R.

Q: For B10, which binding signal is on record?
A: Its binding signal is 0.948 enrichment R.

Q: For B11, which binding signal is on record?
A: The binding signal was 1.07 enrichment R.

Q: B12 was tested. Which binding signal did it give?
A: Its binding signal is 1.03 enrichment R.

Q: How did the binding signal turn out when B13 was run?
A: The binding signal was 2.1 enrichment R.

Q: How did the binding signal turn out when B14 was run?
A: The binding signal was 1.06 enrichment R.

Q: With B15 as the binder, how does the binding signal read?
A: The binding signal was 1.42 enrichment R.

Q: How did the binding signal turn out when B16 was run?
A: Its binding signal is 0.71 enrichment R.

Q: For B17, which binding signal is on record?
A: Its binding signal is 0.776 enrichment R.

Q: For B18, which binding signal is on record?
A: Its binding signal is 1.23 enrichment R.

Q: How did the binding signal turn out when B19 was run?
A: Its binding signal is 2.56 enrichment R.

Q: For B20, which binding signal is on record?
A: The binding signal was 1.09 enrichment R.

Q: With B21 as the binder, how does the binding signal read?
A: The binding signal was 1.06 enrichment R.

Q: How did the binding signal turn out when B22 was run?
A: Its binding signal is 1.13 enrichment R.
